Reference: PubChem BioAssay AID504845 (National Center for Advancing Translational Sciences (NCATS), 2011)
“And” between values parts separate entries of the source, which are not always exact repeats. Equal entries are not always repeated. About 150 (0.038%) of roughly 390,000 compounds were called active. About 3% were inconclusive and are not listed. Calls come from the whole dose curve; as a rule, active = well fitted inhibition curve with a large enough effect; inconclusive = small, poorly fitted or top-dose-only effect; inactive = no such curve, though single readings can be large or run the other way. This is a selection; strong and weak results do not stand in their true shares. More than one record can exist for a structure, and the calls need not agree.

Molecular target: Regulator of G-protein signaling 4 (Homo sapiens) (UniProt P49798)
Sequence of UniProt P49798 (P49798 whole entry, looked up): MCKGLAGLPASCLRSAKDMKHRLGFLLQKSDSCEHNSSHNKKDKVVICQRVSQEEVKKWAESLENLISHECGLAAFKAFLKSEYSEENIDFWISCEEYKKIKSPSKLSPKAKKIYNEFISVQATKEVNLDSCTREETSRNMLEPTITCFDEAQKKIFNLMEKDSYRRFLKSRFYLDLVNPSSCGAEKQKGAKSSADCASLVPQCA
Assay: Inhibitors of Regulator of G Protein Signaling (RGS) 4: qHTS; note: nearly all actives have a fitted effect of over 75% in size
Settings: Transcreener GDP fluorescence polarization, RGS4-accelerated GTP hydrolysis; series mostly up to 114 µM; activity change, negative = inhibition: at the top concentration
Description: G-protein-coupled receptors (GPCRs) are well-established targets for drug discovery and development. Members of the "regulator of G-protein signaling" (RGS)-protein superfamily have recently emerged as critical modulators of specific GPCR signaling pathways. […] Combining specific RGS domain inhibitors with existing GPCR agonists should potentiate cellular responses and could also increase the specificity of action of existing therapeutics. Small molecule modulators of RGS domain activity should also have clinical utility in inhibiting or potentiating the actions of endogenous GPCR agonists. In particular, the diversity of RGS proteins with highly localized and dynamically regulated distributions in the human brain makes this family of proteins attractive targets for pharmacotherapy of central nervous system (CNS) disorders such as Parkinson's disease, schizophrenia, and anxiety.
This assay was used to screen the NIH Molecular Libraries Small Molecule Repository (MLSMR) in order to identify a small molecule that inhibits RGS4.
NIH Chemical Genomics Center [NCGC]
NIH Molecular Libraries Probe Centers Network [MLPCN]
Assay Submitter (PI): David Siderovski, University of North Carolina Chapel Hill (School of Medicine)
Two microliters of 500nM (2x working concentration) is dispensed into black medium-binding solid-bottom Kalypsys plates. Then with the Kalypsys pintool 23nl of control and compounds are transferred; the control compound is […] CCG-4986 (working concentration). After a 10 minute incubation at room temperature 2ul of antibody is added with the Kalypsys dispenser; (-)RGS4/Transcreener GDP solution in columns 3 and 4 which consisted of 10nM (2x working concentration) Alexa633, 20uM GTP, and 20 ug/ml GDP antibody and (+)RGS4/Transcreener GDP solution in columns 1,2, and 5 to 48 which consists of 900nM RGS4 (2x working concentration), 10nM Alexa633, 20 ug/ml GDP antibody. The plate is centrifuged at 1000 RPM for 15 seconds to remove any possible bubbles and then incubated for 5 minutes at ambient room temperature. An initial fluorescent polarization read (620 nm/688 nm) is performed on the Envision before the plate is incubated for 90 minutes at 30 deg C at a relative humidity of 80%. The plate is once more centrifuged at 1000 RPM for 15 seconds and another Envision fluorescent polarization (620 nm/688 nm) read is carried out.
% is set by controls: 0 for no effect and ±100 for the full control effect; potency is the fitted concentration of half-maximal effect.

Structure (SMILES) | Potency | activity change, negative = inhibition
Nc1nc2ccc(OC(F)(F)F)cc2s1 | inactive | –
CCc1ccc(-c2nc3ccc(Br)cc3c(C(=O)O)c2C)s1 | – | inactive: -34.8%
COc1ccc(NC(=O)CCNS(=O)(=O)c2cccc3nonc23)cc1 | – | inactive: -1.55%
COc1ccc(NC(=O)Cn2cnc3sc(C)c(S(=O)(=O)N4CCN(C)CC4)c3c2=O)cc1OC | – | inactive: 4.49%
CCCCCCCCCCCCCCC[C@H](O)[C@H](N)CO | – | inactive: 10.9% [at 56.9 µM]
O=C(CCc1ccc(O)cc1)c1c(O)cc(O)cc1O | – | inactive: -4.47%
CN=C1S/C(=C/c2cn(CC(=O)OC)c3ccccc23)C(=O)N1C | – | inactive: 2.59%
CN1CCN(CCCN2c3ccccc3Sc3ccc(C(F)(F)F)cc32)CC1 | inactive and active: 18.9 µM | –
CN=C(NC#N)NCCSCc1csc(N=C(N)N)n1 | – | inactive: 30% [at 56.9 µM]
OCCN(CCO)c1nc(N2CCCCC2)c2nc(N(CCO)CCO)nc(N3CCCCC3)c2n1 | – | inactive: -0.872%
Cc1nn(C)c(C)c1C(=O)NN | – | inactive: 56.7%
Cc1ccc(S/C(=N/S(=O)(=O)c2ccc(Cl)cc2)c2ccccc2)cc1 | – | inactive: -51.9%
Nc1cc(Cl)c(NC2=NCCN2)c(Cl)c1 | – | inactive: 37% [at 56.9 µM]
O=C(CCS(=O)(=O)c1cccc2nonc12)Nc1ccc(Br)cc1 | – | inactive: 14.1%
Cc1ccc(=O)n(-c2ccccc2)c1 | inactive | –
CCC(=O)NC1Cc2ccccc2C(c2ccccc2)C1 (configuration not stated) | active: 23.8 µM | –
CCCCC/C=C/C=C1/C(=O)C=C[C@@H]1C/C=C\CCCC(=O)O | – | inactive: 340% [at 56.9 µM]
N[C@@H](CS(=O)O)C(=O)O | – | inactive: 5.56% [at 56.9 µM]
CCS(=O)(=O)c1ncc(Cl)c(C(=O)Nc2ccc(S(=O)(=O)N(C)c3ccccc3)cc2)n1 | – | inactive: -102%
C=CCC1NS(=O)(=O)OC(CCCC)C1O (configuration not stated) | – | inactive: -9.29%
CC(C)(C)OC(=O)NC(CC(=O)OCc1ccccc1)C(=O)O (configuration not stated) | – | inactive: 22.6%
CCOC(=O)c1c(C)n(C)c2cc(Br)c(C)cc12 | – | inactive: 56.5%
COc1ccc(N2CCN(C(=O)C3CCN(S(=O)(=O)c4cccs4)CC3)CC2)cc1 | – | inactive: -12.4%

Structure (SMILES) | Potency | activity change, negative = inhibition
CN1C(=O)CC[C@H]1c1cccnc1 | – | inactive: 38.7% [at 56.9 µM]
NC(=O)CCCCn1ccc(NC(N)=NCC(F)(F)F)n1 | – | inactive: 380% [at 56.9 µM]
N[C@@H](Cc1c[nH]c2ccccc12)C(=O)O | – | inactive: -10.6% [at 56.9 µM]
CC(C)NC[C@@H](O)COc1ccc(CC(N)=O)cc1 | – | inactive: -8.28%
Nc1ncnc2c1nc(Br)n2C1OC2COP(=O)(O)O[C@@H]2C1O (some centres not stated) | – | inactive: 28.9% [at 56.9 µM]
C[C@@H](NCCc1ccc(O)cc1)[C@@H](O)c1ccc(O)cc1 | – | inactive: -2.7%
CC1=C/C(=C(/c2cc(C)c(O)c(Br)c2)c2ccccc2S(=O)(=O)O)C=C(Br)C1=O | – | inactive: -37.7%
NS(=O)(=O)c1cc2c(cc1Cl)NC(C1CC3C=CC1C3)NS2(=O)=O (configuration not stated) | – | inactive: -14.3%
O=C(O)[C@@H]1C[C@H](C(=O)O)N1 | – | inactive: -6.65%
COc1ccc(N2CCN(C(=O)CSc3nnc4c(C)cc5cc(C)ccc5n34)CC2)cc1 | – | inactive: 54%
CC1(C)NC(=O)N(CC(=O)NNC(=O)c2ccccc2F)C1=O | – | inactive: 56.1%
C=C(C)[C@H]1CC=C(C)C(=O)C1 | – | inactive: 28.5%
O=C(NCc1ccco1)c1cnn2cccnc12 | – | inactive: 71.8%
CCOC(=O)Cc1csc(NC(=O)/C=C/c2ccccc2Cl)n1 | – | inactive: 17.8%
CCc1ccc(CNC(=O)C2CCCN(c3nnc(C)c4c(C)n(-c5ccccc5)nc34)C2)cc1 (configuration not stated) | – | inactive: -9.51%
N=C(N)c1ccc(N)cc1 | – | inactive: 8.87%
CC(=O)O[C@H]1C(=O)[C@@]2(C)[C@H]([C@H](OC(=O)c3ccccc3)[C@]3(O)C[C@H](OC(=O)[C@H](O)[C@@H](NC(=O)c4ccccc4)c4ccccc4)C(C)=C1C3(C)C)[C@]1(OC(C)=O)CO[C@@H]1C[C@@H]2O | – | inactive: 9.3%
CCCCN1CC(=O)N2[C@H]3c4cc(OC)ccc4OC[C@@H]3[C@H](C(=O)OCC)[C@]2(C)C1=O | – | inactive: -1.44%
NC1CONC1=O (configuration not stated) | – | inactive: 5.7% [at 56.9 µM]
COc1ccccc1N1CCN(C(=O)C2CCCN(S(=O)(=O)c3ccc4c(c3)CCCN4C(C)=O)C2)CC1 (configuration not stated) | – | inactive: -3.23%
CN(C(Cc1ccc(OS(=O)(=O)c2cccc3cnccc23)cc1)C(=O)N1CCN(c2ccccc2)CC1)S(=O)(=O)c1cccc2cnccc12 (configuration not stated) | – | inactive: -190% [at 56.9 µM]
COc1cccc(OC2OC3COC(C)(C)OC3C(O)C2NC(C)=O)c1 (configuration not stated) | – | inactive: -1.88%
COCCn1nnnc1C(c1ccc(OC)cc1)N1CCC(C)CC1 (configuration not stated) | – | inactive: 67.7%

Structure (SMILES) | Potency | activity change, negative = inhibition
COc1ccc(-n2nc3c(N4CCC(C(=O)NCc5ccccc5C)CC4)nnc(C)c3c2C)cc1 | – | inactive: -6.53% [at 11.4 µM]
COc1ccc(N=C2NC(=O)/C(=C/C=C/c3ccccc3)S2)cc1 | – | inactive: 0.531%
CCCCCC(CC(=O)NO)C(=O)NC(C(=O)N1CCCC1CO)C(C)C (configuration not stated) | – | inactive: 21.4%
COc1ccc(-c2ccc3c(N)c(C(=O)c4ccc(OC)c(OC)c4)sc3n2)cc1 | – | inactive: -27.8%
C1CCc2nnnn2CC1 | inactive | –
CCN(C(=O)Cn1cnc2cc([N+](=O)[O-])ccc2c1=O)C1CCS(=O)(=O)C1 (configuration not stated) | – | inactive: 81.2%
CC(C)(C)c1ccc(S(=O)(=O)/C=C/C#N)cc1 | active: 2.12 µM | –
CCCCC[C@H](O)/C=C/[C@@H]1[C@H]2C/C(=C/CCCC(=O)O)C[C@H]2C[C@H]1O | – | inactive: 120% [at 56.9 µM]
CCC(=O)N[C@@H]1Cc2ccccc2[C@@H](c2ccccc2)C1 | – | inactive: -36.6% [at 56.9 µM]
COc1ccc(NC(=O)C2CCCN(S(=O)(=O)c3c(C)[nH]c(=O)[nH]c3=O)C2)cc1OC (configuration not stated) | – | inactive: 7.4%
CC(=O)Oc1ccc(C(=O)N2c3ccccc3NC(=O)C2C)cc1 (configuration not stated) | – | inactive: 54.8%
CC1CCN=C(N)S1 (configuration not stated) | – | inactive: -22.1%
CCCCc1ccc(-c2csc(/C(C#N)=C\c3ccc(C)o3)n2)cc1 | – | inactive: -52.3%
N#C/C(=C\c1ccc(O)c(O)c1)C(=O)NCCCc1ccccc1 | – | inactive: 14.8%
O=C(O)c1cc2cc(Cc3cccnc3)ccc2o1 | – | inactive: -9.4% [at 56.9 µM]
COc1ccc(-c2csc3nc(-c4ccccc4)oc(=O)c23)cc1OC | – | inactive: 6.93%
Nc1ncnc2c1nc(Br)n2[C@H]1O[C@H]2COP(=O)(O)O[C@H]2[C@@H]1O | – | inactive: -87.8% [at 56.9 µM]
O=S1(=O)CCC(NS(=O)(=O)c2cccc3cccnc23)C1 (configuration not stated) | – | inactive: 61.4%
O=C(CC1SC(=NCc2ccccc2)NC1=O)Nc1ccccc1 (configuration not stated) | – | inactive: 55%
O=C1OC[C@H]2CCCN2C(=O)[C@@H](CC(=O)N(CCO)Cc2ccccc2)C/C=C\C[C@H]1Cc1ccc(F)cc1 | – | inactive: 3.23%
Cc1ccc(-c2ccc(=O)n(CC(=O)NCc3ccc(F)cc3)n2)cc1 | – | inactive: -42.9%
